Test results reported in paper PMC12435690, “KYLO-0603, a novel liver-targeting, thyroid hormone receptor-β agonist for the inhibition of MASH progression” (PLOS One, 2025).

Assays:
human THR-β = molecular target: T1, human THR-β (Homo sapiens, UniProt P10828); test: LanthaScreen TR-FRET THRβ coactivator assay; assay type: biochemical; details: normalized for the relative selectivity of T3
T1 construct: purchased Thermo Fisher Scientific PV4687
Method: (§1) In conducting experiments to ascertain the agonist effects of compounds on human THR-α or THR-β, the following equipment and reagents were utilized: The experimental apparatus comprised an Envision instrument (provided by PerkinElmer, model Envision 2014) and an Echo 500 instrument from Labcyte, USA. The experimental reagents used were the LanthaScreen™ TR-FRET THRα/THRβ Coactivator Detection Kit (model PV4687) from Thermo Fisher Scientific. […] Subsequently, 100 nL of the diluted compounds were transferred to a 384-well experimental plate (384 Optiplate), with one compound well designated for each concentration. The experimental procedure was conducted by the instructions provided in the LanthaScreen™ TR-FRET TRα/TRβ Coactivator Assay Kit. To ensure the accuracy and reliability of the data, each experiment was repeated three times. EC50 values were determined by using GraphPad Prism 8.5 (the Dose-response-Stimulation-log[effect] vs. response--Variable slope). Finally, to assess the selectivity of the compounds, we calculated the selectivity multiplicity.

[1] = [14C] Kylo-0603 excretion and tissue distribution in SD rats; assay type: in vivo; details: for Total Radioactivity, Fat / Total Radioactivity, Heart / Total Radioactivity, Kidney / Total Radioactivity, Liver / Total Radioactivity, Lung / Total Radioactivity, Skeletal Muscle / Total Radioactivity, Spleen / Total Radioactivity, Thymus / Total Radioactivity, Thyroid Gland / Total Radioactivity, Whole Brain: single oral 12.5 mg/kg [14C]
Method: Supplementary file pone.0331768.s021.docx: S4 Table Tissue distribution of Kylo-0603. The detailed experimental design and results are as follows: After a single oral administration of 12.5 mg/200 μCi/kg [^14C] Kylo-0603 to SD rats (n = 6, 3 males and 3 females per group), the compound in tissues were detected by semi-quantitive radioactivities from 0 to 168 hours. […] For the tissue distribution study, the same dosing regimen was used to measure the amount of radioactivity in various tissues at 0.083, 0.25, 1, 4 and 24 hours (n = 6; three females and three males at each time point). […] Very low levels were found in the spleen, kidney, lung and adipose tissue. Concentrations in bone, the thyroid gland, the thymus gland, the heart, skeletal muscle and the whole brain were all below the limit of detection. […] (DOCX)

human THR-α = molecular target: T2, human THR-α (Homo sapiens, UniProt P10827); test: LanthaScreen TR-FRET THRα coactivator assay; assay type: biochemical
T2 construct: purchased Thermo Fisher Scientific PV4687
Method: as §1

[2] = PK study: plasma and liver concentrations after PO dosing in rats; details: single dose 7.03 mg/kg PO, fasted male SD rats, 0.25 h
[3] = single oral 12.5 mg/200 μCi/kg [14C] Kylo-0603, 0 to 168 hours

SMILES: CC(=O)N[C@H]1[C@H](OCCCCCCNC(=O)CCOCC(COCCC(=O)NCCCCCCO[C@@H]2O[C@H](CO)[C@H](O)[C@H](O)[C@H]2NC(C)=O)(COCCC(=O)NCCCCCCO[C@@H]2O[C@H](CO)[C@H](O)[C@H](O)[C@H]2NC(C)=O)NC(=O)CCCCCNC(=O)COc2cc(C)c(Cc3ccc(O)c(C(C)C)c3)c(C)c2)O[C@H](CO)[C@H](O)[C@@H]1O [Kylo-0603]
- relative selectivity for THR-β over THR-α (human THR-β): 8.2 fold
- Total Radioactivity, Fat ([1]; 0.083 h): BLQ
- Total Radioactivity, Heart ([1]; 0.083 h): BLQ
- Total Radioactivity, Kidney ([1]; 0.083 h): BLQ
- Total Radioactivity, Liver ([1]; 0.083 h): BLQ
- Total Radioactivity, Lung ([1]; 0.083 h): 23.91±3.5 ngEq/g
- Total Radioactivity, Skeletal Muscle ([1]; 0.083 h): BLQ
- Total Radioactivity, Spleen ([1]; 0.083 h): BLQ
- Total Radioactivity, Thymus ([1]; 0.083 h): BLQ
- Total Radioactivity, Thyroid Gland ([1]; 0.083 h): BLQ
- Total Radioactivity, Whole Brain ([1]; 0.083 h): BLQ
- Total Radioactivity, Fat ([1]; 0.25h): 3.49±4.7 ngEq/g
- Total Radioactivity, Heart ([1]; 0.25h): BLQ
- Total Radioactivity, Kidney ([1]; 0.25h): BLQ
- Total Radioactivity, Liver ([1]; 0.25h): 141±50.5 ngEq/g
- Total Radioactivity, Lung ([1]; 0.25h): BLQ
- Total Radioactivity, Skeletal Muscle ([1]; 0.25h): BLQ
- Total Radioactivity, Spleen ([1]; 0.25h): 20.5±3.07 ngEq/g
- Total Radioactivity, Thymus ([1]; 0.25h): BLQ
- Total Radioactivity, Thyroid Gland ([1]; 0.25h): BLQ
- Total Radioactivity, Whole Brain ([1]; 0.25h): BLQ
- Total Radioactivity, Fat ([1]; 1h): 2.41±2.3 ngEq/g
- Total Radioactivity, Heart ([1]; 1h): BLQ
- Total Radioactivity, Liver ([1]; 1h): 413±24.8 ngEq/g
- Total Radioactivity, Lung ([1]; 1h): BLQ
- Total Radioactivity, Skeletal Muscle ([1]; 1h): BLQ
- Total Radioactivity, Spleen ([1]; 1h): 41.2±1.89 ngEq/g
- Total Radioactivity, Thymus ([1]; 1h): BLQ
- Total Radioactivity, Thyroid Gland ([1]; 1h): BLQ
- Total Radioactivity, Whole Brain ([1]; 1h): BLQ
- Total Radioactivity, Fat ([1]; 4h): BLQ
- Total Radioactivity, Heart ([1]; 4h): BLQ
- Total Radioactivity, Kidney ([1]; 4h): BLQ
- Total Radioactivity, Liver ([1]; 4h): BLQ
- Total Radioactivity, Lung ([1]; 4h): BLQ
- Total Radioactivity, Skeletal Muscle ([1]; 4h): BLQ
- Total Radioactivity, Spleen ([1]; 4h): BLQ
- Total Radioactivity, Thymus ([1]; 4h): BLQ
- Total Radioactivity, Thyroid Gland ([1]; 4h): BLQ
- Total Radioactivity, Whole Brain ([1]; 4h): BLQ
- Total Radioactivity, Fat ([1]; 8h): BLQ
- Total Radioactivity, Heart ([1]; 8h): BLQ
- Total Radioactivity, Kidney ([1]; 8h): BLQ
- Total Radioactivity, Liver ([1]; 8h): BLQ
- Total Radioactivity, Lung ([1]; 8h): BLQ
- Total Radioactivity, Skeletal Muscle ([1]; 8h): BLQ
- Total Radioactivity, Spleen ([1]; 8h): BLQ
- Total Radioactivity, Thymus ([1]; 8h): BLQ
- Total Radioactivity, Thyroid Gland ([1]; 8h): BLQ
- Total Radioactivity, Whole Brain ([1]; 8h): BLQ
- Total Radioactivity, Fat ([1]; 24h): BLQ
- Total Radioactivity, Heart ([1]; 24h): BLQ
- Total Radioactivity, Kidney ([1]; 24h): BLQ
- Total Radioactivity, Liver ([1]; 24h): BLQ
- Total Radioactivity, Lung ([1]; 24h): BLQ
- Total Radioactivity, Skeletal Muscle ([1]; 24h): BLQ
- Total Radioactivity, Spleen ([1]; 24h): BLQ
- Total Radioactivity, Thymus ([1]; 24h): BLQ
- Total Radioactivity, Thyroid Gland ([1]; 24h): BLQ
- Total Radioactivity, Whole Brain ([1]; 24h): BLQ
- radioactivity excreted in urine [1, 3]: 0.05%
- radioactivity excreted via feces [1, 3]: 94.2%
- EC50 (human THR-α): 0.124 ± 0.0139 µM
- liver concentration [2]: 66167 pg/g
- plasma concentration [2]: 0.0128 ng/mL
